Experimental data from the supplement of paper PMC10126150.
Values marked as one replicate rest on one cluster of the flow cell; about a third of the high ones do not repeat.

Test system: ATP
Assay: switch fluorescence ratio, 500 uM ATP over buffer (Cy3 cluster intensity, sum of 5 cycles each) (fold (ratio)); higher = stronger signal-on switching upon ATP binding; sequences stand for … in TCGTCGGCAGCGTCAGATGTGTATAAGAGACAGTTTTTTTTTTTTTTTTTTTTTTTTT…TC
Details: aptamer strand: ATP DNA aptamer (quencher-CACCTGGGGGAGTATTGCGGAGGAAGG + anchor), 100 nM annealed; ATP concentration: 500 uM; one replicate
Summary of the method: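 Cy3-labelled switching-strand clusters on a modified Illumina MiSeq flow-cell were annealed to 100 nM quencher-labelled ATP aptamer and imaged first in selection buffer, then after 15 min with 500 uM ATP at 22 °C. NaOH stripping and re-annealing separated each of five buffer/ATP cycles, and clusters outside 100-1000 RFU were excluded. The fluorescence ratio sums target-cycle Cy3 intensity over buffer-cycle Cy3 intensity per cluster and averages it per switch-domain sequence.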
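Also: ATP exposure 15 min at 22 °C before imaging.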

| Sequence | switch fluorescence ratio |
| --- | --- |
| GCAAGTAGGC | 1.01 |
| TACTGCGTCT | 1 |
| CTGAGCCCAG | 1.05 |
| GGATGAAGT | 0.941 |
| TCGGAAATTC | 1.04 |
| TACCAACTGA | 1.13 |
| AATCTCCAAA | 1.04 |
| AAAACGGTCT | 1.03 |
| TCCCCAACTT | 1.02 |
| GAATGTATAG | 0.935 |
| GTCATCCCAA | 1.99 |
| TATAAACTAT | 0.983 |
| GCTGTTGCG | 1.01 |
| TATGGCCTAG | 1.01 |
| TGCTAACGGT | 1.02 |
| TAGCGCCACA | 0.998 |
| CTTACCAACT | 1.11 |
| TAACTTTTAG | 1.01 |
| AACCCGATTC | 1.05 |
| CAAAGGCTA | 1.03 |
| TATTAGACAC | 1.19 |
| ACGCACGGGG | 1.45 |

| Sequence | switch fluorescence ratio |
| --- | --- |
| AAAAGCACGT | 0.981 |
| GGTGCTGTTG | 0.966 |
| ATTTTCG | 1.01 |
| ACTGCATTGA | 1.08 |
| AGGATAGAGC | 1.07 |
| TTCATGGTCG | 1 |
| TGTGGTTCTG | 0.981 |
| ATACCGAGAT | 1.04 |
| CTTATGCAGA | 1.06 |
| GATGACATTT | 1.11 |
| CGCGGTATTG | 1.03 |
| GCACTCGCTG | 1 |
| GCAACCGGTT | 1 |
| TGCTTTAACC | 1.14 |
| ACATACTAAT | 1.26 |
| ATTCTAATTG | 0.974 |
| GCCGGTAGCG | 0.998 |
| GTAGCCAGT | 0.975 |
| ACAGTGTCGA | 1.06 |
| GATCCCAGT | 1.05 |
| CCTACACACG | 1.59 |
| ACACCTTCAT | 1.83 |

| Sequence | switch fluorescence ratio |
| --- | --- |
| TTGTGATCAT | 0.975 |
| GATGTGACGG | 0.999 |
| TAAGTTTAGC | 1.02 |
| CCTATTAAAT | 0.972 |
| TGAAAGGTT | 0.986 |
| GAGGCTTAGA | 1.04 |
| ACTGCGAGGG | 1.03 |
| TCGTAGGGTA | 1 |
| ATCATCGTAA | 1.04 |
| TATTTATTAA | 1 |
| AGTGGCCTCC | 1.03 |
| GTGGTAGGCT | 1.03 |
| CAGGAGTTG | 1.01 |
| AACCTAAAGA | 1.02 |
| CGGGGGATA | 0.942 |
| GTTTTCGAAC | 1.01 |
| AGGGGCGTCT | 1.01 |
| ATGAAACTTA | 1.02 |
| ACCAAGTTTG | 0.993 |
| AAGTGATATG | 1.04 |
| AAGCAGCAGC | 0.937 |
| GGTGGCATCG | 0.974 |

| Sequence | switch fluorescence ratio |
| --- | --- |
| AGGTTCTTTC | 0.977 |
| GGTATCGATA | 1.02 |
| CCAGGCGCGC | 0.99 |
| CTAAGATCCG | 1 |
| CCAAGGTTTC | 1.06 |
| GTGCGCTCCG | 1.04 |
| CTCACTACTG | 1.03 |
| CAGACCTCCA | 1.11 |
| GGGGATCTCT | 1.03 |
| CGGTTGCGTC | 1.02 |
| TTAAAGGCAT | 1.02 |
| TCGGGGCATC | 0.995 |
| ACTTGGTATA | 1.04 |
| ACCGGAGTC | 1.23 |
| TAGATTGCG | 1.05 |
| TAAAAGCTAG | 1.02 |
| ATCTCCATTC | 1.02 |
| CTGCTCGGCG | 0.999 |
| GAGGCGGGTA | 0.959 |
